The record followed here is article PMC11995724, “Antibiotic target discovery by integrated phenotypic and activity-based profiling of electrophilic fragments” (Cell chemical biology, 2025).

About 110 (3.4%) of roughly 3,200 compounds showed an effect of 50% or more. The list shows a part of the results.

The test deals with T1, V. cholerae SAD30.
T1 construct: SAD30
Also noted: species or system S. aureus MSSA476 (TSB) or V. cholerae SAD30 (LB); 384-well bacterial growth screen at 25 uM, OD600 relative to DMSO control. The note with it: relative growth, OD600, LB; 25 µM; inhibitor.
`Cc1ccccc1C(NC(=O)CCl)c1ccccc1C` [7-J04, N-[bis(2-methylphenyl)methyl]-2-chloroacetamide]: the “% of control remaining” value is 93.5734%.
As to `C=CC(=O)N1CCC[C@H]1C(=O)Nc1cccc(C)n1` [1-B10, (2S)-N-(6-methylpyridin-2-yl)-1-(prop-2-enoyl)pyrrolidine-2-carboxamide], the “% of control remaining” value is 90.0393%.
With `CC(Cl)C(=O)NCc1ccc(Cl)cc1` (centres unmarked) [6-I04, 2-chloro-N-[(4-chlorophenyl)methyl]propanamide], the “% of control remaining” value stood at 95.0991%.
For the compound `CC(Cl)C(=O)NC1CCc2ccccc2-n2ccnc21` (centres unmarked) [7-E06, 2-chloro-N-{2,5-diazatricyclo[8.4.0.0,2,6]tetradeca-1(14),3,5,10,12-pentaen-7-yl}propanamide], the “% of control remaining” value amounted to 78.2422%.
The result for `C=CC(=O)N1CCN(CC2CCOC2)CC1` (centres unmarked) [1-H18, 1-{4-[(oxolan-3-yl)methyl]piperazin-1-yl}prop-2-en-1-one] reads 94.946%.
On to `CNc1ccc(C=C(C#N)C(=O)Nc2ccccc2F)cc1[N+](=O)[O-]` [8-N09, 2-cyano-N-(2-fluorophenyl)-3-[4-(methylamino)-3-nitrophenyl]prop-2-enamide], for which the “% of control remaining” value is reported as 72.8076%.
For the compound `CSc1ccc(C=C(C#N)C(=O)Nc2ccc(C(=O)O)cc2)cc1` [9-M08, 4-{2-cyano-3-[4-(methylsulfanyl)phenyl]prop-2-enamido}benzoic acid], the “% of control remaining” value is listed as 88.3073%.
Regarding `C=CC(=O)NCc1ccc(C(=O)N2CCCC2C(=O)N(C)C)cc1` (centres unmarked) [2-D22, N,N-dimethyl-1-{4-[(prop-2-enamido)methyl]benzoyl}pyrrolidine-2-carboxamide], the “% of control remaining” value is 111.194%.
For the compound `CC(Cl)C(=O)N1CCCC1c1nc(-c2ccccc2)n[nH]1` (centres unmarked) [7-I09, 2-chloro-1-[2-(3-phenyl-1H-1,2,4-triazol-5-yl)pyrrolidin-1-yl]propan-1-one], the “% of control remaining” value stood at 77.4492%.
Take `C=CC(=O)NCc1ccc2oc(=O)n(C)c2c1` [2-L15, N-[(3-methyl-2-oxo-2,3-dihydro-1,3-benzoxazol-5-yl)methyl]prop-2-enamide]: the “% of control remaining” value was found to be 88.6519%.
Regarding `O=C(CCl)Nc1cc(C2CC2)nn1-c1ccccc1` [4-I15, 2-chloro-N-(3-cyclopropyl-1-phenyl-1H-pyrazol-5-yl)acetamide], the “% of control remaining” value was determined as 105.413%.
Turning to `Cc1cc(CNC(=O)CCl)[nH]n1` [7-L22, 2-chloro-N-[(3-methyl-1H-pyrazol-5-yl)methyl]acetamide], the “% of control remaining” value was found to be 91.7231%.
With `CN(Cc1ccccc1)S(=O)(=O)c1ccc(NC(=O)CCl)cc1` [5-K08, N-{4-[benzyl(methyl)sulfamoyl]phenyl}-2-chloroacetamide], the “% of control remaining” value turned out to be 97.1735%.
Take `CCc1cccc(CC)c1NC(=O)CCl` [4-F10, 2-chloro-N-(2,6-diethylphenyl)acetamide]: the “% of control remaining” value came to 103.86%.
As to `CC(Cl)C(=O)N1CCCc2ccc(N(C)C)cc2C1` (centres unmarked) [7-C15, 2-chloro-1-[8-(dimethylamino)-2,3,4,5-tetrahydro-1H-2-benzazepin-2-yl]propan-1-one], the “% of control remaining” value is on record as 74.2772%.
As to `C=CC(=O)NC1CCN(Cc2ccccc2)C1` (centres unmarked) [1-N15, N-(1-benzylpyrrolidin-3-yl)prop-2-enamide], the “% of control remaining” value amounted to 87.145%.
For the compound `CCc1cccc(CC)c1NC(=O)C(C#N)=Cc1ccc(C#N)cc1` [9-O15, 2-cyano-3-(4-cyanophenyl)-N-(2,6-diethylphenyl)prop-2-enamide], the “% of control remaining” value is given as 87.2196%.
For the compound `C=CC(=O)N1CCC(C(=O)N(C)Cc2cc(C(C)(C)C)[nH]n2)CC1` [2-F10, N-[(5-tert-butyl-1H-pyrazol-3-yl)methyl]-N-methyl-1-(prop-2-enoyl)piperidine-4-carboxamide], the “% of control remaining” value is on record as 88.4975%.
`C=CC(=O)NCc1nc2ccccc2s1` [1-I12, N-[(1,3-benzothiazol-2-yl)methyl]prop-2-enamide]: the “% of control remaining” value is on record as 86.5471%.
For `Cc1cccc(C)c1NC(=O)C(C#N)=Cc1ccc(C(=O)O)cc1` [9-G17, 4-{2-cyano-2-[(2,6-dimethylphenyl)carbamoyl]eth-1-en-1-yl}benzoic acid], the “% of control remaining” value is 85.86%.
The result for `Cc1cccc(C)c1NC(=O)CNC(=O)C(C)Cl` (centres unmarked) [6-F10, 2-chloro-N-{[(2,6-dimethylphenyl)carbamoyl]methyl}propanamide] reads 86.1503%.
In the case of `CCCCNC(=O)C(C#N)=Cc1cc(C)c(O)c(C)c1` [9-E09, N-butyl-2-cyano-3-(4-hydroxy-3,5-dimethylphenyl)prop-2-enamide], the “% of control remaining” value is given as 83.4126%.
For `C=CC(=O)N1CCC(n2nc(C)nc2O)CC1` [3-P21, 1-[4-(5-hydroxy-3-methyl-1H-1,2,4-triazol-1-yl)piperidin-1-yl]prop-2-en-1-one], the “% of control remaining” value worked out at 115.38%.
Consider `O=C(CCl)c1ccc(F)c(F)c1` [10-L13, 2-chloro-1-(3,4-difluorophenyl)ethan-1-one], for which the “% of control remaining” value is on record as 4.208%.
As for `CC(Cl)C(=O)NC1CS(=O)(=O)Cc2ccccc21` (centres unmarked) [6-L20, 2-chloro-N-(2,2-dioxo-3,4-dihydro-1H-2lambda6-benzothiopyran-4-yl)propanamide], the “% of control remaining” value came to 91.9139%.
Turning to `O=C(CCl)NC(c1ccccc1)c1cccs1` (centres unmarked) [4-J14, 2-chloro-N-[phenyl(thiophen-2-yl)methyl]acetamide], the “% of control remaining” value worked out at 104.205%.
The result for `C=CC(=O)NCc1c(Cl)c(C(F)(F)F)nn1C` [2-J07, N-{[4-chloro-1-methyl-3-(trifluoromethyl)-1H-pyrazol-5-yl]methyl}prop-2-enamide] reads 87.88%.
As to `CC(Cl)C(=O)NC1CCCN(S(=O)(=O)N2CCOCC2)C1` (centres unmarked) [6-L03, 2-chloro-N-[1-(morpholine-4-sulfonyl)piperidin-3-yl]propanamide], the “% of control remaining” value is listed as 103.289%.
Consider `C=CC(=O)N1CCOC(c2noc(C(C)C)n2)C1` (centres unmarked) [1-O05, 1-{2-[5-(propan-2-yl)-1,2,4-oxadiazol-3-yl]morpholin-4-yl}prop-2-en-1-one], for which the “% of control remaining” value is on record as 92.0777%.
